Data published in the supplement of paper PMC8728848.
Some of the results follow.

How the values were obtained:
Test in all cases: glycan array binding signal (z-score within array); higher = stronger binding
Conditions in all cases: glycan notation: IUPAC condensed, linker removed
[1] = molecular target: Fuc(a1-2)Gal(b1-4)GlcNAc(b1-3)Gal(b1-4)GlcNAc(b1-3)Gal(b1-4)GlcNAc
In short: (§1)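 Negative Z-scores can be read as non-binding. The Z-score is calculated within each array and then averaged across arrays of one protein sequence at different concentrations or buffers and across linkers. Arrays, 3228 in all, were curated from the Consortium for Functional Glycomics database and kept only where the protein sequence was available.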

[2] = molecular target: Fuc(a1-2)Gal(b1-4)GlcNAc(b1-3)GalNAc
In short: as §1

[3] = molecular target: Fuc(a1-2)Gal(b1-4)GlcNAc(b1-3)[Fuc(a1-2)Gal(b1-4)GlcNAc(b1-6)]GalNAc
In short: as §1

[4] = molecular target: Fuc(a1-2)Gal(b1-4)GlcNAc(b1-3)[Fuc(a1-3)[Gal(b1-4)]GlcNAc(b1-6)]Gal(b1-4)Glc
In short: as §1

[5] = molecular target: Fuc(a1-2)Gal(b1-4)GlcNAc(b1-6)GalNAc
In short: as §1

[6] = molecular target: Fuc(a1-2)Gal(b1-4)GlcNAc6S
In short: as §1

[7] = molecular target: Fuc(a1-2)Gal(b1-4)[Fuc(a1-3)]GlcNAc
In short: as §1

[8] = molecular target: Fuc(a1-2)Gal(b1-4)[Fuc(a1-3)]GlcNAc(b1-2)Man(a1-3)[Fuc(a1-2)Gal(b1-4)[Fuc(a1-3)]GlcNAc(b1-2)Man(a1-6)]Man(b1-4)GlcNAc(b1-4)[Fuc(a1-6)]GlcNAc
In short: as §1

[9] = molecular target: Fuc(a1-2)Gal(b1-4)[Fuc(a1-3)]GlcNAc(b1-2)[Fuc(a1-2)Gal(b1-4)[Fuc(a1-3)]GlcNAc(b1-4)]Man(a1-3)[Fuc(a1-2)Gal(b1-4)[Fuc(a1-3)]GlcNAc(b1-2)Man(a1-6)]Man(b1-4)GlcNAc(b1-4)GlcNAc
In short: as §1

[10] = molecular target: Fuc(a1-2)Gal(b1-4)[Fuc(a1-3)]GlcNAc(b1-3)Gal(b1-4)[Fuc(a1-3)]GlcNAc
In short: as §1

[11] = molecular target: Fuc(a1-2)Gal(b1-4)[Fuc(a1-3)]GlcNAc(b1-3)Gal(b1-4)[Fuc(a1-3)]GlcNAc(b1-3)Gal(b1-4)[Fuc(a1-3)]GlcNAc
In short: as §1

[12] = molecular target: Fuc(a1-2)Gal(b1-4)[Fuc(a1-3)]GlcNAc(b1-3)GalNAc
In short: as §1

[13] = molecular target: Fuc(a1-2)Gal(b1-4)[Fuc(a1-3)]GlcNAc(b1-3)[Neu5Ac(a2-6)Gal(b1-4)GlcNAc(b1-6)]Gal(b1-4)Glc
In short: as §1

[14] = molecular target: Fuc(a1-2)Gal3S(b1-4)GlcNAc
In short: as §1

[15] = molecular target: Fuc(a1-2)Gal6S(b1-3)GlcNAc
In short: as §1

[16] = molecular target: Fuc(a1-2)Gal6S(b1-3)GlcNAc6S
In short: as §1

Fuc(a1-2)Gal6S(b1-4)Glc = molecular target: Fuc(a1-2)Gal6S(b1-4)Glc
In short: as §1

[17] = molecular target: Fuc(a1-2)Gal6S(b1-4)Glc6S
In short: as §1

Fuc(a1-2)[Gal(a1-3)]Gal = molecular target: Fuc(a1-2)[Gal(a1-3)]Gal
In short: as §1

[18] = molecular target: Fuc(a1-2)[Gal(a1-3)]Gal(b1-3)GalNAc
In short: as §1

[19] = molecular target: Fuc(a1-2)[Gal(a1-3)]Gal(b1-3)GalNAc(b1-3)Gal(a1-4)Gal(b1-4)Glc
In short: as §1

[20] = molecular target: Fuc(a1-2)[Gal(a1-3)]Gal(b1-3)GlcNAc
In short: as §1

[21] = molecular target: Fuc(a1-2)[Gal(a1-3)]Gal(b1-3)GlcNAc(b1-2)Man(a1-3)[Fuc(a1-2)[Gal(a1-3)]Gal(b1-3)GlcNAc(b1-2)Man(a1-6)]Man(b1-4)GlcNAc(b1-4)GlcNAc
In short: as §1

[22] = molecular target: Fuc(a1-2)[Gal(a1-3)]Gal(b1-3)GlcNAc(b1-2)Man(a1-3)[Fuc(a1-2)[Gal(a1-3)]Gal(b1-3)GlcNAc(b1-2)Man(a1-6)]Man(b1-4)GlcNAc(b1-4)[Fuc(a1-6)]GlcNAc
In short: as §1

[23] = molecular target: Fuc(a1-2)[Gal(a1-3)]Gal(b1-3)GlcNAc(b1-3)GalNAc
In short: as §1

[24] = molecular target: Fuc(a1-2)[Gal(a1-3)]Gal(b1-3)GlcNAc(b1-6)GalNAc
In short: as §1

[25] = molecular target: Fuc(a1-2)[Gal(a1-3)]Gal(b1-4)Glc
In short: as §1

[26] = molecular target: Fuc(a1-2)[Gal(a1-3)]Gal(b1-4)GlcNAc
In short: as §1

[27] = molecular target: Fuc(a1-2)[Gal(a1-3)]Gal(b1-4)GlcNAc(b1-2)Man
In short: as §1

[28] = molecular target: Fuc(a1-2)[Gal(a1-3)]Gal(b1-4)GlcNAc(b1-2)Man(a1-3)[Fuc(a1-2)[Gal(a1-3)]Gal(b1-4)GlcNAc(b1-2)Man(a1-6)]Man(b1-4)GlcNAc(b1-4)GlcNAc
In short: as §1

B1: Pwp3 (Candida glabrata) (protein)
chain: MGSSHHHHHHSSGLVPRGSHMASKNPVDFTTVCQFPDNFSKKPGFLATTARLGLWITGNSYKELLNYPGTFTLTTQQASTTTPNIQLRGTDLFTTIYGLTVYPLYLLVELQGYFVPTQSGMYTFSLTGSDDAAIIFIGNPSTFPCDAFKTWPQATANDITVTDSINPSRTLYMVKGVAYPLRIAYYNGLGNGVLNAAFTDPSGTKRTDWNGYIWQYDQCSTCTYK
- glycan array binding signal (z-score) [1]: -0.021
- glycan array binding signal (z-score) [2]: -0.321
- glycan array binding signal (z-score) [3]: -0.552
- glycan array binding signal (z-score) [4]: 1.32
- glycan array binding signal (z-score) [5]: -0.453
- glycan array binding signal (z-score) [6]: -0.116
- glycan array binding signal (z-score) [7]: -1.06
- glycan array binding signal (z-score) [8]: -0.367
- glycan array binding signal (z-score) [9]: -0.262
- glycan array binding signal (z-score) [10]: 0.07
- glycan array binding signal (z-score) [11]: -0.449
- glycan array binding signal (z-score) [12]: -0.317
- glycan array binding signal (z-score) [13]: -0.179
- glycan array binding signal (z-score) [14]: -0.232
- glycan array binding signal (z-score) [15]: -0.064
- glycan array binding signal (z-score) [16]: -0.093
- glycan array binding signal (z-score) (Fuc(a1-2)Gal6S(b1-4)Glc): -0.444
- glycan array binding signal (z-score) [17]: -0.148
- glycan array binding signal (z-score) (Fuc(a1-2)[Gal(a1-3)]Gal): -0.371
- glycan array binding signal (z-score) [18]: 0.487
- glycan array binding signal (z-score) [19]: 0.266
- glycan array binding signal (z-score) [20]: -0.13
- glycan array binding signal (z-score) [21]: -0.212
- glycan array binding signal (z-score) [22]: -0.189
- glycan array binding signal (z-score) [23]: -0.312
- glycan array binding signal (z-score) [24]: 4.02
- glycan array binding signal (z-score) [25]: -0.227
- glycan array binding signal (z-score) [26]: -0.219
- glycan array binding signal (z-score) [27]: -0.453
- glycan array binding signal (z-score) [28]: -0.392
